# Laboratory results as given in the supplement of paper PMC8728848.
# The other results are listed elsewhere or left out.
# B1: Surfactant Protein D (Human); Neck + Carbohydrate Recognition Domain (NCRD) (Homo sapiens) (protein)
# chain: MLLFLLSALVLLTQPLGYLEAEMKTYSHRTMPSACTLVMCSSVESGLPGRDRDGREGPRGEKGDPGLPGAAGQAGMPGQAGPVGPKGDNGSVGEPGPKGDTGPSGPPGPPGVPGPAGREGALGKQGNIGPQGKPGPKGEAGPKGEVGAPGMQGSAGARGLAGPKGERGVPGERGVPGNTGAAGSAGAMGPQGSPGARGPPGLKGDKGIPGDKGAKGESGLPDVASLRQQVEALQGQVQHLQAAFSQYKKVELFPNGQSVGEKIFKTAQFVKPFTEAQLLCTQAGGQLASPRSAAENAALQQLVVAKNEAAFLSMTDSKTEGKFTYPTGESLVYSNWAPGEPNDDGGSEDCVEIFTNGKWNDAACGEKRLVVCEF
# How the values were obtained:
# Test in all cases: glycan array binding signal (z-score within array); higher = stronger binding
# Details in all cases: glycan notation: IUPAC condensed, linker removed; mutation: R343A
# Gal3S(b1-4)GlcNAc6S = molecular target: Gal3S(b1-4)GlcNAc6S
# Outline: (§1)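 The binding signal is a Z-score computed within each array and averaged over linkers. Arrays of the same protein sequence at different concentrations or buffers were also averaged together. Data originate from 3228 arrays in the Consortium for Functional Glycomics database, kept only where the protein sequence was available.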
# [1] = molecular target: Gal3S(b1-4)[Fuc(a1-3)]Glc
# Outline: as §1
# Gal3S4S(b1-4)GlcNAc = molecular target: Gal3S4S(b1-4)GlcNAc
# Outline: as §1
# Gal3S6S(b1-4)GlcNAc = molecular target: Gal3S6S(b1-4)GlcNAc
# Outline: as §1
# Gal3S6S(b1-4)GlcNAc6S = molecular target: Gal3S6S(b1-4)GlcNAc6S
# Outline: as §1
# Gal4S(b1-4)GlcNAc = molecular target: Gal4S(b1-4)GlcNAc
# Outline: as §1
# Gal4S6S(b1-4)GlcNAc = molecular target: Gal4S6S(b1-4)GlcNAc
# Outline: as §1
# Gal6S(b1-4)Glc = molecular target: Gal6S(b1-4)Glc
# Outline: as §1
# Gal6S(b1-4)Glc6S = molecular target: Gal6S(b1-4)Glc6S
# Outline: as §1
# Gal6S(b1-4)GlcNAc = molecular target: Gal6S(b1-4)GlcNAc
# Outline: as §1
# Gal6S(b1-4)GlcNAc6S = molecular target: Gal6S(b1-4)GlcNAc6S
# Outline: as §1
# GalNAc(a1-3)Gal = molecular target: GalNAc(a1-3)Gal
# Outline: as §1
# GalNAc(a1-3)GalNAc = molecular target: GalNAc(a1-3)GalNAc
# Outline: as §1
# GalNAc(b1-3)Gal = molecular target: GalNAc(b1-3)Gal
# Outline: as §1
# [2] = molecular target: GalNAc(b1-3)Gal(a1-4)Gal(b1-4)GlcNAc
# Outline: as §1
# GalNAc(b1-3)GalNAc = molecular target: GalNAc(b1-3)GalNAc
# Outline: as §1
# GalNAc(b1-4)GlcNAc = molecular target: GalNAc(b1-4)GlcNAc
# Outline: as §1
# Glc(a1-4)Glc = molecular target: Glc(a1-4)Glc
# Outline: as §1
# Glc(a1-6)Glc(a1-6)Glc = molecular target: Glc(a1-6)Glc(a1-6)Glc
# Outline: as §1
# Glc(b1-4)Glc = molecular target: Glc(b1-4)Glc
# Outline: as §1
# Glc(b1-6)Glc = molecular target: Glc(b1-6)Glc
# Outline: as §1
# GlcA(b1-3)Gal = molecular target: GlcA(b1-3)Gal
# Outline: as §1
# GlcA(b1-3)GlcNAc = molecular target: GlcA(b1-3)GlcNAc
# Outline: as §1
# GlcA(b1-6)Gal = molecular target: GlcA(b1-6)Gal
# Outline: as §1
# [3] = molecular target: GlcNAc(a1-3)Gal(b1-4)GlcNAc
# Outline: as §1
# [4] = molecular target: GlcNAc(a1-6)Gal(b1-4)GlcNAc
# Outline: as §1
# [5] = molecular target: GlcNAc(b1-2)Gal(b1-3)GalNAc
# Outline: as §1
# [6] = molecular target: GlcNAc(b1-2)Man(a1-3)[GlcNAc(b1-2)Man(a1-6)]Man(b1-4)GlcNAc(b1-4)GlcNAc
# Outline: as §1
# GlcNAc(b1-3)Gal = molecular target: GlcNAc(b1-3)Gal
# Outline: as §1
# [7] = molecular target: GlcNAc(b1-3)Gal(b1-3)GalNAc
# Outline: as §1
# GlcNAc(b1-3)Gal(b1-4)Glc = molecular target: GlcNAc(b1-3)Gal(b1-4)Glc
# Outline: as §1
# [8] = molecular target: GlcNAc(b1-3)Gal(b1-4)GlcNAc
# Outline: as §1
# [9] = molecular target: GlcNAc(b1-3)Gal(b1-4)GlcNAc(b1-3)Gal(b1-4)GlcNAc
# Outline: as §1
# GlcNAc(b1-3)GalNAc = molecular target: GlcNAc(b1-3)GalNAc
# Outline: as §1
# GlcNAc(b1-3)Man = molecular target: GlcNAc(b1-3)Man
# Outline: as §1
# [10] = molecular target: GlcNAc(b1-3)[GlcNAc(b1-4)][GlcNAc(b1-6)]GlcNAc
# Outline: as §1
# [11] = molecular target: GlcNAc(b1-3)[GlcNAc(b1-6)]Gal(b1-4)GlcNAc
# Outline: as §1
binder,measurement,setting,value
B1,glycan array binding signal (z-score),Gal3S(b1-4)GlcNAc6S,0.4
same,glycan array binding signal (z-score),[1],0.051
same,glycan array binding signal (z-score),Gal3S4S(b1-4)GlcNAc,0.063
same,glycan array binding signal (z-score),Gal3S6S(b1-4)GlcNAc,0.541
same,glycan array binding signal (z-score),Gal3S6S(b1-4)GlcNAc6S,0.624
same,glycan array binding signal (z-score),Gal4S(b1-4)GlcNAc,0.25
same,glycan array binding signal (z-score),Gal4S6S(b1-4)GlcNAc,0.061
same,glycan array binding signal (z-score),Gal6S(b1-4)Glc,0.067
same,glycan array binding signal (z-score),Gal6S(b1-4)Glc6S,0.522
same,glycan array binding signal (z-score),Gal6S(b1-4)GlcNAc,0.075
same,glycan array binding signal (z-score),Gal6S(b1-4)GlcNAc6S,-0.324
same,glycan array binding signal (z-score),GalNAc(a1-3)Gal,-0.339
same,glycan array binding signal (z-score),GalNAc(a1-3)GalNAc,-0.036
same,glycan array binding signal (z-score),GalNAc(b1-3)Gal,-0.337
same,glycan array binding signal (z-score),[2],-0.271
same,glycan array binding signal (z-score),GalNAc(b1-3)GalNAc,-0.381
same,glycan array binding signal (z-score),GalNAc(b1-4)GlcNAc,-0.186
same,glycan array binding signal (z-score),Glc(a1-4)Glc,-0.414
same,glycan array binding signal (z-score),Glc(a1-6)Glc(a1-6)Glc,-0.376
same,glycan array binding signal (z-score),Glc(b1-4)Glc,-0.271
same,glycan array binding signal (z-score),Glc(b1-6)Glc,-0.1
same,glycan array binding signal (z-score),GlcA(b1-3)Gal,-0.187
same,glycan array binding signal (z-score),GlcA(b1-3)GlcNAc,-0.09
same,glycan array binding signal (z-score),GlcA(b1-6)Gal,-0.241
same,glycan array binding signal (z-score),[3],0.13
same,glycan array binding signal (z-score),[4],-0.085
same,glycan array binding signal (z-score),[5],-0.27
same,glycan array binding signal (z-score),[6],-0.308
same,glycan array binding signal (z-score),GlcNAc(b1-3)Gal,-0.29
same,glycan array binding signal (z-score),[7],-0.384
same,glycan array binding signal (z-score),GlcNAc(b1-3)Gal(b1-4)Glc,-0.383
same,glycan array binding signal (z-score),[8],-0.343
same,glycan array binding signal (z-score),[9],-0.173
same,glycan array binding signal (z-score),GlcNAc(b1-3)GalNAc,-0.28
same,glycan array binding signal (z-score),GlcNAc(b1-3)Man,-0.274
same,glycan array binding signal (z-score),[10],-0.284
same,glycan array binding signal (z-score),[11],-0.3
